The assay has as its target Genome polyprotein (dengue virus type 2) (UniProt P29990).
[1] abbreviates: Thailand/16681/1984, Concentration 25.0 uM, Number of replicates 1.0.

SMILES strings stand for the structures. Among all 2,000 compounds or so, about 110 (5.5%) showed an effect of 50% or more. The list shows a part of the results.

Broadly, the inhibition is the drop in the measured response relative to a control, in per cent. With `CC(C)Nc1nc2ccc(C(=O)Nc3ccc4cn[nH]c4n3)cc2[nH]1`, the inhibition runs as follows: (Thailand/16681/1984, Concentration 49.5 uM, Number of replicates 2.0, Standard deviation 1.2194724472482659 %) 2.16%; (Thailand/16681/1984, Concentration 99.01 uM, Number of replicates 2.0, Standard deviation 0.5103679897359988 %) 2.97%; (Thailand/16681/1984, Concentration 198.0 uM, Number of replicates 2.0, Standard deviation 1.336009242024161 %) 6.45%. Turning to `O=Cc1ccc(N2CCC(C(=O)Nc3ccc(SC(F)(F)F)cc3)CC2)cc1`, under setting [1], the inhibition worked out at 11.4%. Turning to `Nc1ccc(-c2ccc3c(c2)B(O)OC3)cn1`, the inhibition came out at 3.85% (Thailand/16681/1984, Concentration 49.5 uM, Number of replicates 2.0, Standard deviation 2.7620048716047796 %); 4.32% (Thailand/16681/1984, Concentration 99.01 uM, Number of replicates 2.0, Standard deviation 2.6667361352307544 %); 5.1% (Thailand/16681/1984, Concentration 198.0 uM, Number of replicates 2.0, Standard deviation 1.9389477268925173 %).

As for `CC(C)(C)N(Cc1ccsc1)C(=O)C1CCN(c2ccc(C=O)cc2)CC1`, under setting [1], the inhibition came out at 15%. On the same count and under the same terms, in the case of `O=Cc1ccc(N2CCC(C(=O)N3CCN(C(=O)[C@@H]4COc5ccccc5O4)CC3)CC2)cc1` it was 12.9%.

With `CCc1noc2ncc(S(=O)(=O)N3CCCN(c4ncccc4C(N)=O)CC3)cc12`, the inhibition is, setting by setting: (Thailand/16681/1984, Concentration 49.5 uM, Number of replicates 2.0, Standard deviation 1.8356788443215486 %) -2.47%; (Thailand/16681/1984, Concentration 99.01 uM, Number of replicates 2.0, Standard deviation 2.074466218905688 %) -1.93%; (Thailand/16681/1984, Concentration 198.0 uM, Number of replicates 2.0, Standard deviation 1.9609356323935294 %) -1.82%. For `O=Cc1ccc(N2CCC(C(=O)N(CCN3CCOCC3)Cc3ccco3)CC2)cc1`, the inhibition under setting [1] was 13%. For the compound `CNS(=O)(=O)NCCNC(=O)c1ccc(O)c(NC(=O)c2ccncc2F)c1C`, the inhibition was -5.48% (Thailand/16681/1984, Concentration 49.5 uM, Number of replicates 2.0, Standard deviation 1.0126660380939199 %); -4.42% (Thailand/16681/1984, Concentration 99.01 uM, Number of replicates 2.0, Standard deviation 1.2028983676587508 %); -1.96% (Thailand/16681/1984, Concentration 198.0 uM, Number of replicates 2.0, Standard deviation 0.3461371468355998 %). For `Cc1cc(O)c2cccc(Cl)c2n1`, the inhibition (Thailand/16681/1984, Concentration 49.95 uM, Number of replicates 2.0, Standard deviation 6.548831311735657 %) is -4.97% and the inhibition (Thailand/16681/1984, Concentration 99.9 uM, Number of replicates 2.0, Standard deviation 6.132588319345643 %) is -2.66%. With `C[C@@H](c1cccc2ccccc12)N(C)C(=O)C1CCN(c2ccc(C=O)cc2)CC1`, the inhibition under setting [1] was 15.1%.

With `O=Cc1ccc(N2CCC(C(=O)NCc3cc(F)c(F)c(F)c3)CC2)cc1`, the inhibition under setting [1] was 15%. Regarding `CNC(=O)c1nc(C)c(C)c(N2CC[C@@H](NC(=O)c3[nH]cnc3C(C)(C)C)C2)n1`, the inhibition (Thailand/16681/1984, Concentration 49.5 uM, Number of replicates 2.0, Standard deviation 3.9729285049821863 %) is -1.49%; the inhibition (Thailand/16681/1984, Concentration 99.01 uM, Number of replicates 2.0, Standard deviation 2.6762452228980855 %) was -0.037%; the inhibition (Thailand/16681/1984, Concentration 198.0 uM, Number of replicates 2.0, Standard deviation 2.7559764814217207 %) is 2.57%.

With `Cc1cc(-n2nccc2NC(=O)[C@]2(c3ccc(F)cc3)CCCNC2)ncn1`, the inhibition is -3.84% (Thailand/16681/1984, Concentration 49.5 uM, Number of replicates 2.0, Standard deviation 3.3001363391540566 %); -3.91% (Thailand/16681/1984, Concentration 99.01 uM, Number of replicates 2.0, Standard deviation 7.095417479243068 %); 10.1% (Thailand/16681/1984, Concentration 198.0 uM, Number of replicates 2.0, Standard deviation 21.37060707909394 %). For `Cc1cc(C(=O)NC2CC2)c2cccc(Cl)c2n1`, the inhibition runs as follows: (Thailand/16681/1984, Concentration 49.95 uM, Number of replicates 2.0, Standard deviation 4.773629949719906 %) -7.48%; (Thailand/16681/1984, Concentration 99.9 uM, Number of replicates 2.0, Standard deviation 4.187928177193353 %) -6.74%. As for `CSc1ncc(C#N)c(NC(=O)C2CCN(c3ccc(C=O)cc3)CC2)n1`, under setting [1], the inhibition came to 13%.

For `O=Cc1ccc(N2CCC(C(=O)Nc3ccccc3OCC(F)(F)F)CC2)cc1`, the inhibition under setting [1] was found to be 13.4%.

Take `NCc1ccc(/C=C/C(=O)C(=O)N2CCOCC2)cc1`: the inhibition was 28.7% (Thailand/16681/1984, Concentration 49.5 uM, Number of replicates 2.0, Standard deviation 0.4887874545992688 %); 48.5% (Thailand/16681/1984, Concentration 99.01 uM, Number of replicates 2.0, Standard deviation 0.17235835687354284 %); 70.2% (Thailand/16681/1984, Concentration 198.0 uM, Number of replicates 2.0, Standard deviation 0.3206181572929207 %). As for `COCCN(Cc1c(C)nn(C)c1C)C(=O)C1CCN(c2ccc(C=O)cc2)CC1`, the inhibition under setting [1] turned out to be 11.9%. With `Cc1cc(CO)c2cccc(Cc3cccc(NC(=O)c4ccc(-c5ccccn5)s4)c3)c2n1`, the inhibition reads like this: (Thailand/16681/1984, Concentration 49.95 uM, Number of replicates 2.0, Standard deviation 0.8654494459321714 %) -0.837%; (Thailand/16681/1984, Concentration 99.9 uM, Number of replicates 2.0, Standard deviation 0.5338092239407879 %) 2.89%. Turning to `Cc1cccc(C(=O)Nc2cc(N)ccc2C)c1`, the inhibition by setting is: (Thailand/16681/1984, Concentration 49.95 uM, Number of replicates 2.0, Standard deviation 6.360452558421487 %) -5.42%; (Thailand/16681/1984, Concentration 99.9 uM, Number of replicates 2.0, Standard deviation 7.5252738299451165 %) -5.57%.

Take `COc1ccc(S(=O)(=O)n2nc(OC(=O)c3cccc(-c4ccccc4Cl)c3)cc2N)cc1`: the inhibition runs as follows: (Thailand/16681/1984, Concentration 49.5 uM, Number of replicates 2.0, Standard deviation 1.4490153953002987 %) 18.8%; (Thailand/16681/1984, Concentration 99.01 uM, Number of replicates 2.0, Standard deviation 0.6098804079928887 %) 22.4%; (Thailand/16681/1984, Concentration 198.0 uM, Number of replicates 2.0, Standard deviation 5.725656788050292 %) 25.3%.

With `O=Cc1ccc(N2CCC(C(=O)Nc3ccc(N4CCOCC4=O)cc3)CC2)cc1`, the inhibition under setting [1] is 9.21%. Turning to `CC(C)(C)OC(=O)[C@H]1CCCN1C(=O)C1CCN(c2ccc(C=O)cc2)CC1`, the inhibition under setting [1] came to 11.5%.

As for `CCN(CCOc1ccccc1C)C(=O)C1CCN(c2ccc(C=O)cc2)CC1`, the inhibition under setting [1] turned out to be 14%. For the compound `NCc1cn(C2CCN(c3nc(-c4ccccc4)cs3)CC2)nn1`, the inhibition reads like this: (Thailand/16681/1984, Concentration 49.5 uM, Number of replicates 2.0, Standard deviation 0.032513427640456005 %) -4.62%; (Thailand/16681/1984, Concentration 99.01 uM, Number of replicates 2.0, Standard deviation 1.6651164489567518 %) -3.29%; (Thailand/16681/1984, Concentration 198.0 uM, Number of replicates 2.0, Standard deviation 1.091599962537426 %) 0.094%. On to `Cc1cc(CO)c2cccc(Cc3ccccc3C(=O)N3CCC(C(=O)O)CC3)c2n1`, for which the inhibition (Thailand/16681/1984, Concentration 49.95 uM, Number of replicates 2.0, Standard deviation 0.622352552136526 %) is 0.457% and the inhibition (Thailand/16681/1984, Concentration 99.9 uM, Number of replicates 2.0, Standard deviation 0.7955477281018075 %) was 4.68%. `O=Cc1ccc(N2CCC(C(=O)Nc3ccc(Cl)c(Cl)c3F)CC2)cc1`: under setting [1], the inhibition worked out at 14.9%. Take `Cc1ccc(C(=O)NC[C@@H](O)CN2CCCC2)cc1OCCN`: the inhibition (Thailand/16681/1984, Concentration 49.5 uM, Number of replicates 2.0, Standard deviation 1.6879511900114692 %) is -2.97%; the inhibition (Thailand/16681/1984, Concentration 99.01 uM, Number of replicates 2.0, Standard deviation 0.9187804769943255 %) is -1.71%; the inhibition (Thailand/16681/1984, Concentration 198.0 uM, Number of replicates 2.0, Standard deviation 1.3447286505327236 %) was -1.06%. In the case of `O=Cc1ccc(N2CCC(C(=O)Nc3nnc(-c4ccncc4)s3)CC2)cc1`, the inhibition under setting [1] stood at 3.72%. Consider `O=C(Nc1ccc(O)cc1)c1cccc(OCc2c(Cl)cccc2Cl)c1`, for which the inhibition is, setting by setting: (Thailand/16681/1984, Concentration 49.5 uM, Number of replicates 2.0, Standard deviation 0.38856258601515087 %) 5.85%; (Thailand/16681/1984, Concentration 99.01 uM, Number of replicates 2.0, Standard deviation 1.1651546847054868 %) 9.28%; (Thailand/16681/1984, Concentration 198.0 uM, Number of replicates 2.0, Standard deviation 0.8272279968409002 %) 12.6%.

Source of the values: ChEMBL document CHEMBL5606460, “ASAP - DENV-2 NS2B-NS3 protease fluorescence single point” (2024).
